Results published in PubChem BioAssay AID588855 (National Center for Advancing Translational Sciences (NCATS), 2011).
The campaign covered roughly 410,000 compounds. About 5,000 (1.2%) were called active. Inconclusive means that the source gave no clear call. Such entries were picked first, then a sample of the others. The call rests on the fitted dose curve; in most records, active means well fitted inhibition curve with a large enough effect; inconclusive means small, poorly fitted or top-dose-only effect; inactive means no such curve, though single readings can be large or run the other way. A potency beside an inconclusive call is a rough fit, not a confirmed value.

test: qHTS for Inhibitors of TGF-b; settings: HepG2 CAGA-GFP TGF-b/SMAD3 reporter, GFP fluorescence, 18 h, TGF-beta stimulated, 500 pg/mL final; series mostly up to 46.1 µM; further: nearly all actives have a fitted effect of over 65% in size
In short: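 Inhibition was scored as loss of TGF-beta-induced (500 pg/mL final, 18 hours, 37 degrees C) GFP in HEPG2 cells carrying a CAGA-GFP reporter, in DMEM with 1% FBS. Well GFP was summed per cell; Activity was normalised to unstimulated and stimulated DMSO wells, then concentration-response fitting.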
Potency means the concentration at half of the fitted maximal effect; tags describe the fitted curve by direction and shape.

Row | Compound | Potency
1 | COc1ccccc1CNS(=O)(=O)c1ccc(N2CCCCS2(=O)=O)cc1 | inactive
2 | CSc1cccc(NC(=O)C2CCCN(S(=O)(=O)c3ccc(F)cc3)C2)c1 (stereo not given) | inactive
3 | CCCCCCCCCc1nc2sc3c(c2c(=O)n1NC(=O)c1ccccc1[N+](=O)[O-])CC(C)(C)OC3 | inconclusive: 11.2 µM [inhibitor, partial curve, poor fit]
4 | C[C@@H]1CN([C@H](C)CO)C(=O)CCCn2nncc2CO[C@H]1CN(C)Cc1ccc(Cl)c(Cl)c1 | inconclusive: 35.5 µM [inhibitor, single point]
5 | CN(C(=O)Cn1ncc2c1-c1ccccc1OC2)c1ccc(Br)cc1 | inconclusive: 35.5 µM [inhibitor, single point]
6 | CCCCCn1c(CNC(=O)c2ccc(F)cc2)nc2ccccc21 | inconclusive: 11.2 µM [inhibitor, partial curve, poor fit]
7 | CCS(=O)(=O)c1cccc(C(=O)N2CCN(c3nc4c(C)ccc(Cl)c4s3)CC2)c1 | inconclusive: 12.6 µM [inhibitor, partial curve, poor fit]
8 | Cc1ccc(-c2csc(NC(=O)c3cc([N+](=O)[O-])ccc3N3CCOCC3)n2)cc1 | inactive
9 | O=C(CSc1nc(=O)n(CCCN2CCOCC2)c2c1CCC2)Nc1ccccc1F | inconclusive: 0.631 µM [inhibitor, partial curve, poor fit]
10 | O=C(O)CCC(=O)c1cccc2ccccc12 | inactive
11 | C#CCOc1ccc(C(=O)N(C)c2ccccc2I)cc1 | inactive
12 | CCn1c(SCc2ccc(F)cc2Cl)nc(=O)c2c(C(=O)OC)cc(C3CC3)nc21 | inconclusive: 35.5 µM [inhibitor, single point]
13 | O=C(C1=C[C@@H](C2CCCCC2)C[C@@H](OCc2ccc(CO)cc2)O1)N1CCN(Cc2ccccc2)CC1 | inconclusive: 20 µM [inhibitor, partial curve, poor fit]
14 | Cc1ccc(OCCCCN(C)Cc2ccccc2)c(Br)c1 | inconclusive: 35.5 µM [inhibitor, single point]
15 | N#C/C(=N/Nc1ccc([N+](=O)[O-])cc1)C(=N)N1CCCCC1 | inactive
16 | Cc1csc2ncnc(N3CCN(C(=S)Nc4ccc(C(F)(F)F)cc4)CC3)c12 | inconclusive: 17.8 µM [inhibitor, single point]
17 | O=C(/C(=C(\O)c1ccccc1)c1ncc[nH]1)c1ccccc1 | inactive
18 | NNC(=O)/C(=C\c1ccco1)NC(=O)c1ccco1 | inconclusive: 20 µM [inhibitor, single point]
19 | COC(=O)c1c(C)oc2ccc(N(C(=O)c3ccncc3)S(=O)(=O)c3ccc4ccccc4c3)cc12 | inconclusive: 35.5 µM [inhibitor, single point]
20 | CCOC(=O)C1CCN(S(=O)(=O)c2ccc(N3CCCCS3(=O)=O)cc2)CC1 | inconclusive: 31.6 µM [inhibitor, partial curve, poor fit]
21 | Cc1ccsc1C(=O)N1CCC1(C)C(=O)NS(=O)(=O)c1ccccc1C(F)(F)F (stereo not given) | inactive
22 | O=C1ON=C(c2cccc([N+](=O)[O-])c2)/C1=C/c1ccc(O)cc1 | inconclusive: 35.5 µM [inhibitor, single point]

Row | Compound | Potency
23 | CCOc1ccccc1N(CC(=O)NC1CCCC1)C(=O)CNC(=O)c1cccs1 | inactive
24 | CN(CC(=O)NCc1ccc(Cl)cc1)S(=O)(=O)c1cccc2nsnc12 | inconclusive: 1.41 µM [inhibitor, partial curve, poor fit]
25 | O=C1CCc2cc(Br)ccc2O1 | inconclusive: 6.31 µM [inhibitor, full curve]
26 | COc1ccc(-c2noc(CCCC(=O)NCCc3ccccc3)n2)cc1OC | inactive
27 | COc1cc2c(cc1NC(=O)Nc1ccc(F)cc1)oc1ccccc12 | inconclusive: 11.2 µM [inhibitor, partial curve]
28 | Cc1ccc(-c2csc(NC(=O)C[n+]3cc(-c4ccc(C)cc4)n4c3CCC4)n2)cc1 | inconclusive: 28.2 µM [inhibitor, partial curve, poor fit]
29 | CCOC(=O)c1c(C)[nH]c(C(=O)CSc2nnc(-c3ccncc3)n2CC)c1C | inconclusive: 1.41 µM [inhibitor, partial curve, poor fit]
30 | COc1cccc(CN2C(=O)[C@H]3Cc4c([nH]c5ccccc45)C(C)(C)N3C2=O)c1 | inconclusive: 22.4 µM [inhibitor, single point]
31 | Cc1ccc(-c2nc3cc(C)c(Br)c(C)n3c2Cc2ccccc2)cc1 | inactive
32 | CC(NC(=O)c1ccc(CS(C)(=O)=O)cc1)c1cccc2ccccc12 (stereo not given) | inactive
33 | O=S(=O)(O)c1cccc2c(N=Nc3ccc(O)c4ncccc34)cccc12 | inactive
34 | COc1ccc(C(=O)Oc2cc(/C=N/NC(N)=S)ccc2OC)cc1 | inconclusive: 35.5 µM [inhibitor, partial curve, poor fit]
35 | Cc1ccc(S(=O)(=O)NNC(=O)Nc2ccc([N+](=O)[O-])cc2)c(C)c1 | inconclusive: 3.55 µM [inhibitor, partial curve, poor fit]
36 | CCOc1ccc(CC(=O)NCCc2csc(-c3ccc(Cl)cc3)n2)cc1 | inconclusive: 6.31 µM [inhibitor, single point]
37 | CN1CCN(c2ccccc2NC(=O)Cn2ncc3c([nH]c4ccccc43)c2=O)CC1 | inconclusive: 15.8 µM [inhibitor, single point]
38 | Cc1ccc(CSc2nc(-c3ccc(C(C)(C)C)cc3)nc3cc(=O)[nH]n23)cc1 | inconclusive: 28.2 µM [inhibitor, single point]
39 | O=C1ON=C(c2ccccc2)/C1=C/c1ccc(-c2ccccc2[N+](=O)[O-])o1 | active: 20 µM
40 | CC(=O)c1ccc(S(=O)(=O)N2CCN(CC(=O)Nc3ccc(Cl)c([N+](=O)[O-])c3)CC2)cc1 | inconclusive: 14.1 µM [inhibitor, single point]
41 | CCOc1ccc(N=Cc2ccc(N(C)C)cc2)c(O)c1 | inconclusive: 35.5 µM [inhibitor, single point]
42 | CCCCCCCCOC(=O)C1=C(C)Nc2nnnn2C1c1cccs1 (stereo not given) | inconclusive: 35.5 µM [inhibitor, single point]
43 | NC1=C(Cl)C(=O)c2ccccc2C1=O | inconclusive: 2 µM [inhibitor, partial curve, poor fit]
44 | CC(C)(C)OC(=O)N1CCC(c2c(C(=O)N3CCN(c4ccccn4)CC3)cnn2-c2ccccc2Cl)CC1 | inconclusive: 35.5 µM [inhibitor, single point]

Row | Compound | Potency
45 | CCOCCCNC(=O)c1cn(CC)c2ccc(S(=O)(=O)N3CCc4ccccc4C3)cc2c1=O | inconclusive: 15.8 µM [inhibitor, partial curve, poor fit]
46 | N/C(=N\c1nc2ccccc2o1)NC(=O)c1cccc(Br)c1 | inactive
47 | CN1CCN(C(=O)CCN2C(=O)/C(=C\c3ccc(Cl)cc3)SC2=S)CC1 | inactive
48 | CCOC(=O)c1[nH]c(C)c(CCC(=O)N2CCN(c3cccc(C)c3C)CC2)c1C | inconclusive: 15.8 µM [inhibitor, single point]
49 | CN1CCN(c2ccc(S(=O)(=O)N3CCCCC3)cc2NC(=O)c2ccc3ccccc3c2)CC1 | active: 35.5 µM
50 | Cc1ccn2c(NC3CCCC3)c(-c3ccsc3)nc2c1 | inconclusive: 35.5 µM [inhibitor, single point]
51 | Cc1ncnc2nc[nH]c12 | inconclusive: 7.08 µM [inhibitor, partial curve, poor fit]
52 | COc1cc(NC(=O)CSCC(=O)Nc2cccc(C(F)(F)F)c2)c(Cl)cc1Cl | inconclusive: 35.5 µM [inhibitor, single point]
53 | CCc1nnc(N/N=C/c2c(F)cccc2Cl)n1N | inconclusive: 35.5 µM [inhibitor, single point]
54 | O=C(NC1=NCCS1)c1ccc(Cl)c(S(=O)(=O)N2CCc3ccccc32)c1 | inconclusive: 3.55 µM [inhibitor, partial curve, poor fit]
55 | CN(Cc1ccccc1)C(=O)c1cccc(NC(=O)c2nsc3ccccc23)c1 | inconclusive: 35.5 µM [inhibitor, single point]
56 | O=C(Nc1ccccc1N1CCCCC1)c1ccc(-c2ccc(Cl)cc2)o1 | inconclusive: 17.8 µM [inhibitor, single point]
57 | COc1ccc(CNc2nc3ccccc3n2CCN2CCCCC2)c(OC)c1 | inconclusive: 35.5 µM [inhibitor, single point]
58 | COc1ccc(CNc2oc(/C=C/c3cccc(OC)c3)nc2C#N)cc1 | inconclusive: 35.5 µM [inhibitor, single point]
59 | Cc1ccc2[nH]c(-c3ccccc3)cc(=O)c2c1 | inconclusive: 14.1 µM [inhibitor, partial curve, poor fit]
60 | Nc1nc(Nc2ccccc2F)sc1C(=O)c1ccccc1 | inconclusive: 28.2 µM [inhibitor, single point]
61 | COC(=O)C1=C(C)NC2=C(C(=O)CCC2)C1c1cn(Cc2ccc(Br)cc2)nc1-c1ccccc1 (stereo not given) | inactive
62 | CC(/C=C/c1ccccc1)=N/NC(=O)c1nc2nc(C)cc(C)n2n1 | inactive
63 | CC(=O)c1ccc(-c2ccc(C(=O)N3CCCc4ccccc43)o2)cc1 | inactive
64 | CCC(=O)N1CCN(c2ccccc2NC(=O)c2ccc([N+](=O)[O-])o2)CC1 | active: 15.8 µM
65 | Cc1ccc(O)c(NC(=O)C2CC(c3cccc(Br)c3)=NO2)c1 (stereo not given) | inconclusive: 10 µM [inhibitor, partial curve, poor fit]
